Measured values taken from PMC4503722, “Novel Phenotypic Outcomes Identified for a Public Collection of Approved Drugs from a Publicly Accessible Panel of Assays” (PLoS ONE, 2015).

How the values were obtained:
Experiment in all cases: cells
Type in all cases: cell-based
[1] = test system: HCT116 cells treated with a GSK3β inhibitor; details: Homo sapiens, HCT-116, read-out: GSK3b inh pretreated_Viability ATP HCT116
INS-1E cells = details: Rattus norvegicus, read-out: Insulin Secretion
NCI-H716 cells = details: Homo sapiens, NCI-H716, read-out: GLP 1 Secretion
SW480 = details: Homo sapiens, SW480, read-out: Basal_Viability ATP SW480
DLD-1 = details: Homo sapiens, DLD-1, read-out: Basal_Viability ATP DLD-1
HCT116 = details: Homo sapiens, HCT-116, read-out: Basal_Viability ATP HCT116
[2] = test system: nuclear β-catenin in C2C12 cells; details: Mus musculus, C2C12, read-out: Wnt Pathway
[3] = test system: endothelial tube formation in co-cultures of ECFCs and ADSCs treated with VEGF; details: Homo sapiens, read-out: Anti-Angiogenesis

Structure (SMILES): CCN(CC)CCOc1ccc(C(=C(Cl)c2ccccc2)c2ccccc2)cc1 [Clomiphene]
- IC50 [1]: 2610 nM
- EC50 (INS-1E cells): > 10 µM
- EC50 (NCI-H716 cells): > 20 µM
- IC50 (SW480): 1940 nM
- IC50 (DLD-1): 1840 nM

Structure (SMILES): COc1cc2c(c(OC)c1OC)-c1ccc(OC)c(=O)cc1[C@@H](NC(C)=O)CC2 [colchicine]
- IC50 [1]: 66.7 nM
- IC50 (HCT116): 0.164 µM
- IC50 (SW480): 338 nM
- IC50 (DLD-1): 336 nM

Structure (SMILES): Clc1ccc(COC(Cn2ccnc2)c2ccc(Cl)cc2Cl)cc1 (centres unmarked) [Econazole]
- IC50 [1]: 4440 nM
- EC50 [2]: > 10 µM
- EC50 (INS-1E cells): > 10 µM
- EC50 (NCI-H716 cells): 4.29 µM
- IC50 (HCT116): 4.39 µM
- IC50 (SW480): 3160 nM
- IC50 (DLD-1): 3810 nM

Structure (SMILES): Cc1ccccc1C(OCCN(C)C)c1ccccc1 (centres unmarked) [Orphenadrine]
- IC50 [3]: > 10 µM
- IC50 [1]: > 20000 nM
- EC50 [2]: > 10 µM
- EC50 (NCI-H716 cells): > 10 µM
- IC50 (HCT116): > 20 µM
- IC50 (SW480): > 20000 nM
- IC50 (DLD-1): > 20000 nM
